Tests used:
[1] = system: Mcl-1, XIAP, Bcl-2, survivin, cleaved PARP; details: H460, 1× or 1.5×IC50, 24 h; FIG. 4
[2] = system: survivin, Bcl-2, Mcl-1, XIAP, caspase 3 and 9; details: H460, 1×IC50, time course; FIG. 5
H460 cells = details: H460, 1×IC50; sodium valproate (or medium) 24 h then seliciclib (or medium) 24 h; FIG. 6

| SMILES | Bcl-2 protein level [1] | survivin protein level [1] | Bcl-2 level [2] | survivin level [2] | percentage of cells in sub-G1 (apoptotic cells) (H460 cells) |
| --- | --- | --- | --- | --- | --- |
| CCCC(=O)[O-].[Na+] [Butyrate, sodium butyrate] | reduces | reduces | reduces | reduces | – |
| CC[C@H](CO)Nc1nc(NCc2ccccc2)c2ncn(C(C)C)c2n1 [seliciclib, 2-(1-R-hydroxymethylpropylamino)-6-benzylamino-9-isopropylpurine] | – | – | – | – | small increase |

Reference: US20090306098A1 (Cyclacel Limited, priority 2005, published 2009)
